The other results are listed elsewhere or left out. Sequences were assembled here from the parent chain. Values near 0.05 are background.
B1: TEV protease; numbered along this chain (parent)
chain: MGESLFKGPRDYNPISSSICHLTNESDGHTTSLYGIGFGPFIITNKHLFRRNNGTLVVQSLHGVFKVKDTTTLQQHLVDGRDMIIIRMPKDFPPFPQKLKFREPQREERICLVTTNFQTKSMSSMVSDTSCTFPSGDGIFWKHWIQTKDGQCGSPLVSTRDGFIVGIHSASNFTNTNNYFTSVPKNFMELLTNQEAQQWVSGWRLNADSVLWGGHKVFMVKPEEPFQPVKEATQL

Variants of: B1
Assay: raw area under fraction-flipped curve 0-4 h after induction (AUC4h, not background-subtracted), DNA-recorder readout of cleavage of the substrate (dimensionless); higher = more cleavage of the substrate by the protease variant
Conditions: temperature: 34 °C; time window: 0-4 h after rhamnose induction
Description: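 In vivo DNA recorder in E. coli TOP10(DE3) ΔrhaA at 34 °C. Each TEVp single-site mutant (parent TEVp 0) is paired with a single-site variant of the 7-mer TEVs (canonical ENLYFQ|S). The substrate sits between flexible linkers in a Bxb1-sfGFP-TEVs-SsrA fusion, so cleavage stabilises Bxb1 and speeds flipping of a recombination array, read by NGS. The value is the raw area under the fraction-flipped curve over 0-4 h after rhamnose induction (AUC4h), with ≥20 reads per time point. It is not background-subtracted; inactive controls average about 0.047.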
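Note: Bxb1 expression induced with 0.2% (w/v) L-rhamnose at OD600 near 0.5, cultures sampled hourly, flipped fraction per protease–substrate barcode pair counted by paired-end Illumina sequencing.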

Variant	area with substrate ENLAFQS	area with substrate ENLCFQS	area with substrate ENLDFQS	area with substrate ENLHFQS	area with substrate ENLIFQS	area with substrate ENLKFQS	area with substrate ENLLFQS	area with substrate ENLNFQS	area with substrate ENLPFQS	area with substrate ENLSFQS	area with substrate ENLTFQS	area with substrate ENLEFQS	area with substrate ENLFFQS	area with substrate ENLGFQS	area with substrate ENLMFQS	area with substrate ENLWFQS	area with substrate ENLQFQS	area with substrate ENLRFQS	area with substrate ENLVFQS
MGESLFKGPRDYNPISSSICHLTNESDGHTTSLYGIGFGPFIITNKHLFRRNNGTLVVQSLHGVFKVKDTTTLQQHLVDGRDMIIIRMPKDFPPFPQKLKFREPQREERICLVTTNFQTKSMSSMVSDTSCTFPSGDGIFWKHWIQTKDGQCGSPLVSTRDGFIVGIHSASNFTNTNNYFTSVPKNFMELLTNQEAQQWVSGWRLNADSVLWGGHKHFMVKPEEPFQPVKEATQL [V217H]	0.0682	0.0672	0.0625	0.0542	0.0579	0.065	0.0213	0.064	0.0578	0.0474	0.0445								
MGESLFKGPRDYNPISSSICHLTNESDGHTTSLYGIGFGPFIITNKHLFRRNNGTLVVQSLHGVFKVKDTTTLQQHLVDGRDMIIIRMPKDFPPFPQKLKFREPQREERICLVTTNFQTKSMSSMVSDTSCTFPSGDGIFWKHWIQTMDGQCGSPLVSTRDGFIVGIHSASNFTNTNNYFTSVPKNFMELLTNQEAQQWVSGWRLNADSVLWGGHKVFMVKPEEPFQPVKEATQL [K148M]	0.06	0.0654	0.0649	0.074		0.0779	0.0731	0.0694	0.0303	0.0702		0.0715	0.0779	0.0672	0.0871	0.0803			
MGESQFKGPRDYNPISSSICHLTNESDGHTTSLYGIGFGPFIITNKHLFRRNNGTLVVQSLHGVFKVKDTTTLQQHLVDGRDMIIIRMPKDFPPFPQKLKFREPQREERICLVTTNFQTKSMSSMVSDTSCTFPSGDGIFWKHWIQTKDGQCGSPLVSTRDGFIVGIHSASNFTNTNNYFTSVPKNFMELLTNQEAQQWVSGWRLNADSVLWGGHKVFMVKPEEPFQPVKEATQL [L5Q]	0.0627	0.0822	0.066	0.065	0.0943	0.086				0.0745		0.0518	0.102			0.0704	0.0476	0.0704	0.115
MGESLFKGPRDYNPISSSICHLTNESDGHTTSLYGIGFGPFIITNKHLFRRNNGTLVVQSLHGVFKVKDTTTLQQHLVDGRDMIIIRMPKDFPPFPQKLKFREPQREERICLVTTNFQTKSMSSMVSDTSCTFPSGDGIFWKHWIQTKDGQCGSPKVSTRDGFIVGIHSASNFTNTNNYFTSVPKNFMELLTNQEAQQWVSGWRLNADSVLWGGHKVFMVKPEEPFQPVKEATQL [L156K]	0.0528	0.0547	0.0566	0.0602		0.0491		0.0562	0.0496	0.0553	0.0599			0.0684	0.055			0.0571	
MGESLFKGPRDYNPISSSICHLTNESDGHTTSLYGIGFGPFIITNKHLFLRNNGTLVVQSLHGVFKVKDTTTLQQHLVDGRDMIIIRMPKDFPPFPQKLKFREPQREERICLVTTNFQTKSMSSMVSDTSCTFPSGDGIFWKHWIQTKDGQCGSPLVSTRDGFIVGIHSASNFTNTNNYFTSVPKNFMELLTNQEAQQWVSGWRLNADSVLWGGHKVFMVKPEEPFQPVKEATQL [R50L]	0.0729		0.0591	0.0614		0.0778				0.0663		0.0603	0.0946	0.0762				0.0905	0.102
MGESLFKGPRDYNPISSSICHLTNESDGHTTSLYGIGFGPFIITNKHLFRRNNGTLVVQSLHGVFFVKDTTTLQQHLVDGRDMIIIRMPKDFPPFPQKLKFREPQREERICLVTTNFQTKSMSSMVSDTSCTFPSGDGIFWKHWIQTKDGQCGSPLVSTRDGFIVGIHSASNFTNTNNYFTSVPKNFMELLTNQEAQQWVSGWRLNADSVLWGGHKVFMVKPEEPFQPVKEATQL [K66F]	0.0823		0.0682	0.068	0.0892	0.0685	0.0876	0.0567		0.0679		0.0755	0.0973	0.0589		0.0593	0.0619	0.0668	
MGESLFKGPRDYNPISSSICHLTNESDGHTTSLYGIGFGPFIITNKHLFRRNNGTLVVQSLHGVFKVKDTTTLQQHLVDGRDMIIIRMPKDFPPFPQKCKFREPQREERICLVTTNFQTKSMSSMVSDTSCTFPSGDGIFWKHWIQTKDGQCGSPLVSTRDGFIVGIHSASNFTNTNNYFTSVPKNFMELLTNQEAQQWVSGWRLNADSVLWGGHKVFMVKPEEPFQPVKEATQL [L99C]	0.0956	0.0881	0.0886	0.0812	0.0754	0.0646	0.0628		0.0769	0.0696	0.0525	0.0928	0.0803			0.0718	0.0664		0.0805
MGESLFKGARDYNPISSSICHLTNESDGHTTSLYGIGFGPFIITNKHLFRRNNGTLVVQSLHGVFKVKDTTTLQQHLVDGRDMIIIRMPKDFPPFPQKLKFREPQREERICLVTTNFQTKSMSSMVSDTSCTFPSGDGIFWKHWIQTKDGQCGSPLVSTRDGFIVGIHSASNFTNTNNYFTSVPKNFMELLTNQEAQQWVSGWRLNADSVLWGGHKVFMVKPEEPFQPVKEATQL [P9A]	0.0608	0.0633	0.0637	0.0611	0.0854	0.0654	0.0704	0.0611	0.0621		0.0886	0.0824			0.0696			0.0679	0.0906
MGESLFKGPRDYNPISSSICHLTNESDGHTTSLYGIGFGPFIITNKHLFRRNNGTLVVQSLHGVFKVKDTTTLQQHLVDGRDMIIIRMPKDFPPFPQKLKFREPQREERICLVTTNFQTKSMSSMVSDTSCTFPSGDGIFWKHWIQTKDGQCGSPLVSTRDGFIVGIHSASNFTNTNNYFTSVPKNFMELLTNQEAQQWVSGWRLNADSVLWGGHKVFMVYPEEPFQPVKEATQL [K221Y]	0.0699	0.0672	0.0507	0.0764		0.0903		0.0538	0.063	0.0666	0.0553		0.0769	0.0704	0.0507	0.0502	0.0698	0.069	0.0849
MGESLFKGPRDYNPISSSICHLTNESDGHTTSLYGIGFGPFIITNKHLFRRNNGTLVVQSLHGVFKVKDTTTLQQHLVDGRDMIIIRMPKDFPPFPQKLKFREPQREERICLVTTNFQTKSMSSMVSDTSCTFPSGDGIFWKHWIQTKDGQCGSPLVSTRDGFIVGIHSASNFTNTNNYFTSCPKNFMELLTNQEAQQWVSGWRLNADSVLWGGHKVFMVKPEEPFQPVKEATQL [V183C]	0.056	0.0574		0.0712		0.0857	0.0648	0.0709	0.0664	0.0643		0.0589	0.078		0.0866	0.0599	0.0639	0.0768	0.123
MGESLFKGPRDYNPISSSICHLTNESDGHTTSLYGIGFGPFIIQNKHLFRRNNGTLVVQSLHGVFKVKDTTTLQQHLVDGRDMIIIRMPKDFPPFPQKLKFREPQREERICLVTTNFQTKSMSSMVSDTSCTFPSGDGIFWKHWIQTKDGQCGSPLVSTRDGFIVGIHSASNFTNTNNYFTSVPKNFMELLTNQEAQQWVSGWRLNADSVLWGGHKVFMVKPEEPFQPVKEATQL [T44Q]	0.046		0.0448	0.0576	0.0469	0.0486	0.046	0.0529	0.0335	0.021	0.0427	0.0385	0.0312	0.0662	0.0473	0.0447			
MGESLFKGPRDYNPISSSICHLTNESDGHTTSLYGIGFGPFIITNKHLFRRNNGTLVVQSLHGVFKVKDTTTLQQHLVDGRDMIIIRMPKDFPQFPQKLKFREPQREERICLVTTNFQTKSMSSMVSDTSCTFPSGDGIFWKHWIQTKDGQCGSPLVSTRDGFIVGIHSASNFTNTNNYFTSVPKNFMELLTNQEAQQWVSGWRLNADSVLWGGHKVFMVKPEEPFQPVKEATQL [P94Q]	0.0726		0.0649	0.0728	0.0722	0.0776	0.0916	0.0684	0.0716	0.0659		0.0692	0.113		0.0798	0.0545		0.0731	0.0928
MGESLFKGPRDYNPISSSICHLTNESDGHTGSLYGIGFGPFIITNKHLFRRNNGTLVVQSLHGVFKVKDTTTLQQHLVDGRDMIIIRMPKDFPPFPQKLKFREPQREERICLVTTNFQTKSMSSMVSDTSCTFPSGDGIFWKHWIQTKDGQCGSPLVSTRDGFIVGIHSASNFTNTNNYFTSVPKNFMELLTNQEAQQWVSGWRLNADSVLWGGHKVFMVKPEEPFQPVKEATQL [T31G]	0.0618		0.0709		0.0588	0.0653	0.0661	0.0566	0.0597	0.0821	0.0468	0.0554	0.116		0.077	0.0413	0.0662	0.107	0.0698
MGESLFKGPRDYNPISSSICHLTNESDGHTTSLYGIGFGPFIITNKHLFRRNNGTLVVQSLHGVFKVKDTTTLQQHLVDGRDMIIIRMPKDFPPFPQKLKFREPQREERICLVTTNFQTKSMSSMVSDTSCTFPSGDGIFWKHWIQTKDGQCGSPLVSTRDGFIVGIHSASNFTNTNNYFTSVPKNFMELLTNQEAQQWVSGWRLNADSVLWGGHKVFMVKPETPFQPVKEATQL [E224T]	0.0718	0.0682	0.0436	0.0617	0.0751	0.0848	0.0596	0.0665	0.0639		0.0755		0.0762			0.0642	0.0586	0.0696	
MGESLFKGPRDYNPISSSICHLTNESDGHTTSLYGIGFGPFIITNKHLFRRNNGTLVVQSLHGVFKVKDTTTLQQHLVDGRDMIIIRMPKDFPPFPQKLKFREPQREERICLVTTNFQTKYMSSMVSDTSCTFPSGDGIFWKHWIQTKDGQCGSPLVSTRDGFIVGIHSASNFTNTNNYFTSVPKNFMELLTNQEAQQWVSGWRLNADSVLWGGHKVFMVKPEEPFQPVKEATQL [S121Y]	0.076								0.0641	0.0653			0.0807	0.0682		0.0839	0.0424		0.117
MGESLFKGPRDYNPISSSICHLTNESDGHTTSLYGCGFGPFIITNKHLFRRNNGTLVVQSLHGVFKVKDTTTLQQHLVDGRDMIIIRMPKDFPPFPQKLKFREPQREERICLVTTNFQTKSMSSMVSDTSCTFPSGDGIFWKHWIQTKDGQCGSPLVSTRDGFIVGIHSASNFTNTNNYFTSVPKNFMELLTNQEAQQWVSGWRLNADSVLWGGHKVFMVKPEEPFQPVKEATQL [I36C]	0.0717	0.065	0.053	0.0508	0.0797	0.0866		0.0652	0.0593	0.0608			0.0771	0.0695	0.0714		0.067	0.0769	0.0824
MGESLFKGPRDYNPISSSICHLTNESDGHTTSLYGIGFGPFIITNKHLFRRNNGTLVVQSLHNVFKVKDTTTLQQHLVDGRDMIIIRMPKDFPPFPQKLKFREPQREERICLVTTNFQTKSMSSMVSDTSCTFPSGDGIFWKHWIQTKDGQCGSPLVSTRDGFIVGIHSASNFTNTNNYFTSVPKNFMELLTNQEAQQWVSGWRLNADSVLWGGHKVFMVKPEEPFQPVKEATQL [G63N]	0.0582		0.0481			0.0694	0.0567	0.0607	0.0412	0.0723	0.0678			0.0735		0.062		0.052	
MGESLFKGPRDYNPISSSICHLTNESDGHTTSLYGIGFGPFIITQKHLFRRNNGTLVVQSLHGVFKVKDTTTLQQHLVDGRDMIIIRMPKDFPPFPQKLKFREPQREERICLVTTNFQTKSMSSMVSDTSCTFPSGDGIFWKHWIQTKDGQCGSPLVSTRDGFIVGIHSASNFTNTNNYFTSVPKNFMELLTNQEAQQWVSGWRLNADSVLWGGHKVFMVKPEEPFQPVKEATQL [N45Q]	0.0562	0.043	0.0625	0.0597	0.0677	0.0612	0.0543	0.0578	0.049	0.0694		0.0551	0.0485	0.0634	0.0712	0.0604	0.0662	0.0647	0.0385

From the supplement of paper PMC12217912
